From PubChem BioAssay (NCI)
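Values below derive from 48-hour exposures of cells grown in 96-well plates, with endpoints linearly interpolated between the two concentrations bracketing the appropriate inhibition level. The concentration for 50% growth inhibition is given as GI50. TGI: total growth inhibition.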

Test system: NCI-H322M lung
Assay: NCI-60 cell line screen, 48 h

Which GI50 does the source give for `O/N=C(\CSc1nnc(-c2c[nH]c3ccccc23)n1-c1ccccc1)c1ccc(Cl)cc1` here?
The GI50 was 5.71 µM.

And the TGI?
The TGI was 73.3 µM.

With `C=C1CC[C@H](C(=C)C)[C@H]2C=C(C)C(=O)C3=C(C(=O)[C@@](C)(O)C3)[C@H]12` as the compound, how does the GI50 read?
Its GI50 is 1.5 µM.

What about the TGI of the same compound?
The TGI was 2.83 µM.

How did the GI50 turn out when `O=C(N/N=C/c1ccc(Cl)cc1)c1ccc(OCc2nc3ccc(Cl)cc3[nH]2)cc1` was run?
Its GI50 is 12.6 µM.

What about the TGI of the same compound?
The TGI was 35.1 µM.
